# Reference: the supplement of paper PMC8728848
# The other results are listed elsewhere or left out.
# Columns and labels:
# Assay in all cases: glycan array binding signal (z-score within array); higher = stronger binding
# Conditions in all cases: glycan notation: IUPAC condensed, linker removed
# [1] = molecular target: Gal(b1-3)GlcNAc(b1-6)Gal(b1-4)GlcNAc
# In short: (§1)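 Arrays were curated from the Consortium for Functional Glycomics database, 3228 in total, and kept only where the protein sequence was available. Binding is expressed as a within-array Z-score. This score was averaged across arrays of the same protein sequence at different concentrations or buffers and across linkers, and negative values can be read as non-binding.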
# [2] = molecular target: Gal(b1-3)GlcNAc(b1-6)GalNAc
# In short: as §1
# [3] = molecular target: Gal(b1-3)GlcNAc(b1-6)[Gal(b1-3)]GalNAc
# In short: as §1
# Gal(b1-3)GlcNAc6S = molecular target: Gal(b1-3)GlcNAc6S
# In short: as §1
# [4] = molecular target: Gal(b1-3)[Fuc(a1-4)]GlcNAc
# In short: as §1
# [5] = molecular target: Gal(b1-3)[Fuc(a1-4)]GlcNAc(b1-2)Man
# In short: as §1
# [6] = molecular target: Gal(b1-3)[Fuc(a1-4)]GlcNAc(b1-2)Man(a1-3)[Gal(b1-3)[Fuc(a1-4)]GlcNAc(b1-2)Man(a1-6)]Man(b1-4)GlcNAc(b1-4)[Fuc(a1-6)]GlcNAc
# In short: as §1
# [7] = molecular target: Gal(b1-3)[Fuc(a1-4)]GlcNAc(b1-3)Gal(b1-3)[Fuc(a1-4)]GlcNAc
# In short: as §1
# [8] = molecular target: Gal(b1-3)[Fuc(a1-4)]GlcNAc(b1-3)Gal(b1-4)[Fuc(a1-3)]GlcNAc
# In short: as §1
# [9] = molecular target: Gal(b1-3)[Fuc(a1-4)]GlcNAc(b1-6)GalNAc
# In short: as §1
# [10] = molecular target: Gal(b1-3)[GlcNAc(b1-6)]GalNAc
# In short: as §1
# [11] = molecular target: Gal(b1-3)[Neu5Ac(a2-6)]GalNAc
# In short: as §1
# [12] = molecular target: Gal(b1-3)[Neu5Ac(a2-6)]GlcNAc(b1-4)Gal(b1-4)Glc
# In short: as §1
# [13] = molecular target: Gal(b1-3)[Neu5Ac(b2-6)]GalNAc
# In short: as §1
# Gal(b1-4)Gal = molecular target: Gal(b1-4)Gal
# In short: as §1
# [14] = molecular target: Gal(b1-4)GalNAc(a1-3)[Fuc(a1-2)]Gal(b1-4)GlcNAc
# In short: as §1
# [15] = molecular target: Gal(b1-4)GalNAc(b1-3)[Fuc(a1-2)]Gal(b1-4)GlcNAc
# In short: as §1
# Gal(b1-4)Glc = molecular target: Gal(b1-4)Glc
# In short: as §1
# Gal(b1-4)Glc6S = molecular target: Gal(b1-4)Glc6S
# In short: as §1
# Gal(b1-4)GlcNAc = molecular target: Gal(b1-4)GlcNAc
# In short: as §1
# [16] = molecular target: Gal(b1-4)GlcNAc(a1-6)Gal(b1-4)GlcNAc
# In short: as §1
# Gal(b1-4)GlcNAc(b1-2)Man = molecular target: Gal(b1-4)GlcNAc(b1-2)Man
# In short: as §1
# [17] = molecular target: Gal(b1-4)GlcNAc(b1-2)Man(a1-3)Man(b1-4)GlcNAc(b1-4)GlcNAc
# In short: as §1
# [18] = molecular target: Gal(b1-4)GlcNAc(b1-2)Man(a1-3)[Gal(b1-4)GlcNAc(b1-2)Man(a1-6)]Man(b1-4)GlcNAc(b1-4)GlcNAc
# In short: as §1
# [19] = molecular target: Gal(b1-4)GlcNAc(b1-2)Man(a1-3)[Gal(b1-4)GlcNAc(b1-2)Man(a1-6)]Man(b1-4)GlcNAc(b1-4)[Fuc(a1-6)]GlcNAc
# In short: as §1
# [20] = molecular target: Gal(b1-4)GlcNAc(b1-2)Man(a1-3)[Gal(b1-4)GlcNAc(b1-2)Man(a1-6)][Gal(b1-4)GlcNAc(b1-4)]Man(b1-4)GlcNAc(b1-4)[Fuc(a1-6)]GlcNAc
# In short: as §1
# [21] = molecular target: Gal(b1-4)GlcNAc(b1-2)Man(a1-3)[Gal(b1-4)GlcNAc(b1-2)Man(a1-6)][GlcNAc(b1-4)]Man(b1-4)GlcNAc(b1-4)[Fuc(a1-6)]GlcNAc
# In short: as §1
# [22] = molecular target: Gal(b1-4)GlcNAc(b1-2)Man(a1-3)[GlcNAc(b1-2)Man(a1-6)]Man(b1-4)GlcNAc(b1-4)GlcNAc
# In short: as §1
# [23] = molecular target: Gal(b1-4)GlcNAc(b1-2)Man(a1-3)[GlcNAc(b1-4)][Gal(b1-4)GlcNAc(b1-2)Man(a1-6)]Man(b1-4)GlcNAc(b1-4)GlcNAc
# In short: as §1
# [24] = molecular target: Gal(b1-4)GlcNAc(b1-2)Man(a1-3)[Man(a1-6)]Man(b1-4)GlcNAc(b1-4)GlcNAc
# In short: as §1
# [25] = molecular target: Gal(b1-4)GlcNAc(b1-2)Man(a1-6)Man(b1-4)GlcNAc(b1-4)GlcNAc
# In short: as §1
# [26] = molecular target: Gal(b1-4)GlcNAc(b1-2)Man(a1-6)[GlcNAc(b1-2)Man(a1-3)]Man(b1-4)GlcNAc(b1-4)GlcNAc
# In short: as §1
# [27] = molecular target: Gal(b1-4)GlcNAc(b1-2)Man(a1-6)[Man(a1-3)]Man(b1-4)GlcNAc(b1-4)GlcNAc
# In short: as §1
# [28] = molecular target: Gal(b1-4)GlcNAc(b1-2)[Gal(b1-4)GlcNAc(b1-4)]Man(a1-3)[Gal(b1-4)GlcNAc(b1-2)Man(a1-6)]Man(b1-4)GlcNAc(b1-4)GlcNAc
# In short: as §1
# [29] = molecular target: Gal(b1-4)GlcNAc(b1-2)[Gal(b1-4)GlcNAc(b1-4)]Man(a1-3)[Gal(b1-4)GlcNAc(b1-2)[Gal(b1-4)GlcNAc(b1-6)]Man(a1-6)]Man(b1-4)GlcNAc(b1-4)GlcNAc
# In short: as §1
# [30] = molecular target: Gal(b1-4)GlcNAc(b1-2)[Gal(b1-4)GlcNAc(b1-4)]Man(a1-3)[GlcNAc(b1-4)][Gal(b1-4)GlcNAc(b1-2)Man(a1-6)]Man(b1-4)GlcNAc(b1-4)GlcNAc
# In short: as §1
# [31] = molecular target: Gal(b1-4)GlcNAc(b1-2)[Gal(b1-4)GlcNAc(b1-4)]Man(a1-3)[GlcNAc(b1-4)][Gal(b1-4)GlcNAc(b1-2)[Gal(b1-4)GlcNAc(b1-6)]Man(a1-6)]Man(b1-4)GlcNAc(b1-4)GlcNAc
# In short: as §1
# [32] = molecular target: Gal(b1-4)GlcNAc(b1-2)[Gal(b1-4)GlcNAc(b1-6)]Man(a1-6)[Gal(b1-4)GlcNAc(b1-2)Man(a1-3)]Man(b1-4)GlcNAc(b1-4)GlcNAc
# In short: as §1
# [33] = molecular target: Gal(b1-4)GlcNAc(b1-2)[Gal(b1-4)GlcNAc(b1-6)]Man(a1-6)[Gal(b1-4)GlcNAc(b1-2)Man(a1-3)]Man(b1-4)GlcNAc(b1-4)[Fuc(a1-6)]GlcNAc
# In short: as §1
# [34] = molecular target: Gal(b1-4)GlcNAc(b1-2)[Gal(b1-4)GlcNAc(b1-6)]Man(a1-6)[GlcNAc(b1-4)][Gal(b1-4)GlcNAc(b1-2)Man(a1-3)]Man(b1-4)GlcNAc(b1-4)GlcNAc
# In short: as §1
# [35] = molecular target: Gal(b1-4)GlcNAc(b1-2)[Gal(b1-4)GlcNAc(b1-6)]Man(a1-6)[GlcNAc(b1-4)][Gal(b1-4)GlcNAc(b1-2)[Gal(b1-4)GlcNAc(b1-4)]Man(a1-3)]Man(b1-4)GlcNAc(b1-4)[Fuc(a1-6)]GlcNAc
# In short: as §1
# [36] = molecular target: Gal(b1-4)GlcNAc(b1-3)Gal(b1-3)GalNAc
# In short: as §1
# [37] = molecular target: Gal(b1-4)GlcNAc(b1-3)Gal(b1-3)GlcNAc
# In short: as §1
# [38] = molecular target: Gal(b1-4)GlcNAc(b1-3)Gal(b1-4)Glc
# In short: as §1
# [39] = molecular target: Gal(b1-4)GlcNAc(b1-3)Gal(b1-4)GlcNAc
# In short: as §1
binder,measurement,setting,value
"UDA (Urtica dioica), P11218 (protein) MMMRFLSAVVIMSSAMAVGLVSAQRCGSQGGGGTCPALWCCSIWGWCGDSEPYCGRTCENKCWSGERSDHRCGAAVGNPPCGQDRCCSVHGWCGGGNDYCSGSKCQYRCSSSVRGPRVALSGNSTANSIGNVVVTEPLFDQMFSHRKDCPSQGFYSYHSFLVAAESFPAFGTIGDVATRKREVAAFLAHISQATSGERSDVENPHAWGLCHINTTTVTENDFCTSSDWPCAAGKKYSPRGPIQLTHNFNYGLAGQAIGEDLIQNPDLVEKDPIISFKTALWFWMSQHDNKPSCHDIVLNANSAANRIPNKGVIGNIISRAFGHDDFAVRSSSIGFYKRYCDMLGVSYGHDLKYWFDNTPSSEFQRIQMRVAA",glycan array binding signal (z-score),[1],-0.182
same,glycan array binding signal (z-score),[2],-0.186
same,glycan array binding signal (z-score),[3],-0.177
same,glycan array binding signal (z-score),Gal(b1-3)GlcNAc6S,-0.184
same,glycan array binding signal (z-score),[4],-0.185
same,glycan array binding signal (z-score),[5],-0.168
same,glycan array binding signal (z-score),[6],-0.025
same,glycan array binding signal (z-score),[7],-0.175
same,glycan array binding signal (z-score),[8],-0.175
same,glycan array binding signal (z-score),[9],-0.176
same,glycan array binding signal (z-score),[10],-0.182
same,glycan array binding signal (z-score),[11],-0.117
same,glycan array binding signal (z-score),[12],-0.215
same,glycan array binding signal (z-score),[13],-0.187
same,glycan array binding signal (z-score),Gal(b1-4)Gal,-0.178
same,glycan array binding signal (z-score),[14],-0.127
same,glycan array binding signal (z-score),[15],-0.171
same,glycan array binding signal (z-score),Gal(b1-4)Glc,-0.181
same,glycan array binding signal (z-score),Gal(b1-4)Glc6S,-0.189
same,glycan array binding signal (z-score),Gal(b1-4)GlcNAc,0.006
same,glycan array binding signal (z-score),[16],-0.161
same,glycan array binding signal (z-score),Gal(b1-4)GlcNAc(b1-2)Man,-0.17
same,glycan array binding signal (z-score),[17],2
same,glycan array binding signal (z-score),[18],-0.17
same,glycan array binding signal (z-score),[19],-0.175
same,glycan array binding signal (z-score),[20],-0.178
same,glycan array binding signal (z-score),[21],-0.176
same,glycan array binding signal (z-score),[22],-0.126
same,glycan array binding signal (z-score),[23],-0.175
same,glycan array binding signal (z-score),[24],4.63
same,glycan array binding signal (z-score),[25],-0.165
same,glycan array binding signal (z-score),[26],-0.175
same,glycan array binding signal (z-score),[27],-0.153
same,glycan array binding signal (z-score),[28],0.22
same,glycan array binding signal (z-score),[29],0.393
same,glycan array binding signal (z-score),[30],-0.178
same,glycan array binding signal (z-score),[31],-0.17
same,glycan array binding signal (z-score),[32],-0.058
same,glycan array binding signal (z-score),[33],-0.17
same,glycan array binding signal (z-score),[34],-0.17
same,glycan array binding signal (z-score),[35],-0.179
same,glycan array binding signal (z-score),[36],-0.179
same,glycan array binding signal (z-score),[37],-0.175
same,glycan array binding signal (z-score),[38],-0.189
same,glycan array binding signal (z-score),[39],-0.069
